Tested on: Human kidney cancer cell line 786-O cells
Assay type: in vivo
Conditions: 786-O subcutaneous xenograft, nude mice, ADC (1) 1 mg/kg i.v. on Day 0, belzutifan 0.3 mg/kg orally once daily, five times a week for 3 weeks
Experimental: Mouse: Six-week-old female BALB/c nude mice (The Jackson Laboratory Japan, Inc.) were subjected to an experiment.
Measurement and calculation expression: The long diameter and short diameter of each tumor were measured twice a week using electronic digital calipers (CD-15CX, Mitutoyo Corp.), and the volume of the tumor was then calculated. The following expression was used in the calculation.
The anti-CDH6 antibody-drug conjugate (1) was diluted with ABS buffer (10 mM acetate buffer (pH 5.5), 5% sorbitol), and the dilution was intravenously administered at a dose of 10 mL/kg to the tail of each mouse. Belzutifan was suspended in 10% dimethyl sulfoxide, 40% polyethylene glycol 300, 5% Tween-80, and 45% physiological saline, and the suspension was administered orally at a dose of 10 mL/kg.
Human kidney cancer cell line 786-O cells purchased from ATCC (American Type Culture Collection) were suspended in Matrigel Matrix, and the cell suspension was subcutaneously inoculated at a dose of 4×10^6 cells to the right flank region of each female nude mouse. […]
Tumor growth inhibition (TGI) is calculated according to the following expression.
Change from baseline (%) (percentage change of average tumor volume on Day 21 from an average tumor volume on Day 0 as a baseline) was calculated according to the following expression, and is shown in FIG. 15.

B1: Anti-CDH6 antibody-drug conjugate (1): humanized anti-CDH6 antibody (heavy chain SEQ ID NO: 29, light chain SEQ ID NO: 38) conjugated to the exatecan-derivative drug-linker via thioether bond; DAR 7.9 (conjugate)
heavy: EVQLVQSGAEVKKPGASVKVSCKASGYTFTRNFMHWVRQAPGQGLEWMGWIYPGDGETEYAQKFQGRVTITADTSTSTAYMELSSLRSEDTAVYYCARGVYGGFAGGYFDFWGQGTLVTVSSASTKGPSVFPLAPSSKSTSGGTAALGCLVKDYFPEPVTVSWNSGALTSGVHTFPAVLQSSGLYSLSSVVTVPSSSLGTQTYICNVNHKPSNTKVDKRV[human IgG1 Fc left out]
light: DIQMTQSPSSLSASVGDRVTITCKASQNIYKNLAWYQQKPGKAPKLLIYDANTLQTGVPSRFSGSGSGSDFTLTISSLQPEDFATYFCQQYYSGWAFGQGTKVEIKRTVAAPSVFIFPPSDEQLKSGTASVVCLLNNFYPREAKVQWKVDNALQSGNSQESVTEQDSKDSTYSLSSTLTLSKADYEKHKVYACEVTHQGLSSPVTKSFNRGEC
modifications: exatecan-derivative drug-linker, DAR 7.9; Matured heavy chain amino acid sequence of hH01 heavy chain, without a signal sequence; Matured light chain amino acid sequence of hL02 light chain, without a signal sequence
In the case of B1, the “Tumor growth inhibition (TGI)” value (Day 21) is reported as 43% and the “Change from baseline (%) (percentage change of average tumor volume on Day 21 from average tumor volume on Day 0)” value (Day 21 vs Day 0) is reported as 25%.

— US20260248938A1, “COMBINATION OF ANTI-CDH6 ANTIBODY-DRUG CONJUGATE AND HIF-2alpha INHIBITOR” (DAIICHI SANKYO COMPANY, LIMITED, priority 2023, published 2026)
